This is an account of results in the supplement of paper PMC10369915.

The other results are listed elsewhere or left out. Rule as the data show it: active = 3.2 or more and inactive = the rest. Only a few entries rise above the background.
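Also: displayed peptides selected on beads carrying the immobilized SH2 domain, with library peptides lacking any tyrosine serving as negative controls.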

The target in the first assay is SHP2 C-SH2 domain E139D. Put plainly: enrichment score (SH2-bound / input frequency) (ratio); bacterial display of known human phosphotyrosine sites (pTyr-Var adds point mutants) read by sequencing; higher = stronger binding; tyrosines were phosphorylated by kinases first. The following applies: peptide library: Human pTyr.
With EDDPDAAYTTTGGKI [EPHA8_HUMAN_793], the enrichment score was inactive: 0.999.

Regarding DDPSDPTYTSSLGGK [EPHB3_HUMAN_792], the enrichment score was inactive: 0.653.

As for SGASTGIYEALELRD [ENOA_HUMAN_44], the enrichment score was inactive: 0.572.

Take IYIDPFTYEDPNEAV [EPHB1_HUMAN_600]: the enrichment score is inactive: 1.12.

As for SVRKGGSYSQAASSD [1A80_HUMAN_344], the enrichment score is inactive: 0.637.

On to GHQKRIAYSLLGLKD [EPHA2_HUMAN_960], for which the enrichment score was inactive: 1.12.

With DSQQTNDYMQPEEDW [ACTN1_HUMAN_12], the enrichment score is inactive: 1.44.

Consider MYGRDSAYQSITHYR [EMD_HUMAN_161], for which the enrichment score was inactive: 0.896.

As to DDTSDPTYTSSLGGK [EPHB1_HUMAN_778], the enrichment score was inactive: 0.763.

KDRERPMYGRDSAYQ [EMD_HUMAN_155]: the enrichment score was inactive: 1.45.

For the molecule ESIRMKRYILHFHSA [EPHA1_HUMAN_930], the enrichment score was inactive: 1.91.

In the case of AYQSITHYRPVSASR [EMD_HUMAN_167], the enrichment score is inactive: 1.26.

Take KLPGVRTYIDPHTAE [EPHA5_HUMAN_650_YA]: the enrichment score was inactive: 0.823.

For MAGRDSAYQSITHAR [EMD_HUMAN_161_YA], the enrichment score was inactive: 0.831.

IINQEGEYIKMFMRG [EMAL4_HUMAN_226]: the enrichment score was inactive: 1.2.

Take TAIDPHTYEDPNQAV [EPHA5_HUMAN_656_YA]: the enrichment score is inactive: 0.739.

Consider TRGDADMYDLPKKED [EMD_HUMAN_74], for which the enrichment score was inactive: 0.981.

Turning to GHTSNNIYEAVKASE [ELP3_HUMAN_202_YA], the enrichment score is inactive: 0.849.

In another assay the target is SHP2 C-SH2 domain wild-type. The assay is described as above. The following applies: peptide library: Human pTyr.
EDDPDAAYTTTGGKI [EPHA8_HUMAN_793]: the enrichment score was inactive: 0.719.

For the molecule DDPSDPTYTSSLGGK [EPHB3_HUMAN_792], the enrichment score is inactive: 0.563.

In the case of SGASTGIYEALELRD [ENOA_HUMAN_44], the enrichment score is inactive: 0.585.

With IYIDPFTYEDPNEAV [EPHB1_HUMAN_600], the enrichment score was inactive: 1.01.

As for SVRKGGSYSQAASSD [1A80_HUMAN_344], the enrichment score was inactive: 0.557.

Take GHQKRIAYSLLGLKD [EPHA2_HUMAN_960]: the enrichment score is inactive: 0.965.

For DSQQTNDYMQPEEDW [ACTN1_HUMAN_12], the enrichment score was inactive: 1.02.

In the case of MYGRDSAYQSITHYR [EMD_HUMAN_161], the enrichment score was inactive: 0.907.

Regarding DDTSDPTYTSSLGGK [EPHB1_HUMAN_778], the enrichment score was inactive: 0.548.

In the case of KDRERPMYGRDSAYQ [EMD_HUMAN_155], the enrichment score is inactive: 1.41.

In the case of ESIRMKRYILHFHSA [EPHA1_HUMAN_930], the enrichment score is inactive: 1.99.

Consider AYQSITHYRPVSASR [EMD_HUMAN_167], for which the enrichment score is inactive: 1.74.

For KLPGVRTYIDPHTAE [EPHA5_HUMAN_650_YA], the enrichment score is inactive: 0.794.

As to MAGRDSAYQSITHAR [EMD_HUMAN_161_YA], the enrichment score is inactive: 0.842.

Turning to IINQEGEYIKMFMRG [EMAL4_HUMAN_226], the enrichment score was inactive: 0.935.

On to TAIDPHTYEDPNQAV [EPHA5_HUMAN_656_YA], for which the enrichment score was inactive: 0.564.

TRGDADMYDLPKKED [EMD_HUMAN_74]: the enrichment score is inactive: 0.798.

As to GHTSNNIYEAVKASE [ELP3_HUMAN_202_YA], the enrichment score was inactive: 0.785.

The target in another assay is SHP2 N-SH2 domain L43F. Described as above. The following applies: peptide library: Human pTyr.
Take EDDPDAAYTTTGGKI [EPHA8_HUMAN_793]: the enrichment score is inactive: 0.991.

Regarding DDPSDPTYTSSLGGK [EPHB3_HUMAN_792], the enrichment score is inactive: 0.793.

For the molecule SGASTGIYEALELRD [ENOA_HUMAN_44], the enrichment score was inactive: 0.594.

As for IYIDPFTYEDPNEAV [EPHB1_HUMAN_600], the enrichment score was inactive: 0.909.

Regarding SVRKGGSYSQAASSD [1A80_HUMAN_344], the enrichment score is inactive: 0.622.

On to GHQKRIAYSLLGLKD [EPHA2_HUMAN_960], for which the enrichment score is inactive: 0.939.

On to DSQQTNDYMQPEEDW [ACTN1_HUMAN_12], for which the enrichment score was inactive: 1.01.

For MYGRDSAYQSITHYR [EMD_HUMAN_161], the enrichment score was inactive: 0.924.

Consider DDTSDPTYTSSLGGK [EPHB1_HUMAN_778], for which the enrichment score is inactive: 0.536.

Regarding KDRERPMYGRDSAYQ [EMD_HUMAN_155], the enrichment score was inactive: 1.33.

Consider ESIRMKRYILHFHSA [EPHA1_HUMAN_930], for which the enrichment score is inactive: 1.78.

On to AYQSITHYRPVSASR [EMD_HUMAN_167], for which the enrichment score is inactive: 1.42.

Turning to KLPGVRTYIDPHTAE [EPHA5_HUMAN_650_YA], the enrichment score was inactive: 0.707.

Take MAGRDSAYQSITHAR [EMD_HUMAN_161_YA]: the enrichment score is inactive: 0.686.

For the molecule IINQEGEYIKMFMRG [EMAL4_HUMAN_226], the enrichment score was inactive: 1.03.

Take TAIDPHTYEDPNQAV [EPHA5_HUMAN_656_YA]: the enrichment score is inactive: 0.652.

Regarding TRGDADMYDLPKKED [EMD_HUMAN_74], the enrichment score is inactive: 0.831.

GHTSNNIYEAVKASE [ELP3_HUMAN_202_YA]: the enrichment score is inactive: 0.954.

The next assay has as its target SHP2 N-SH2 domain T42A. The assay is described as above. The following applies: peptide library: Human pTyr.
For EDDPDAAYTTTGGKI [EPHA8_HUMAN_793], the enrichment score is inactive: 0.861.

Regarding DDPSDPTYTSSLGGK [EPHB3_HUMAN_792], the enrichment score was inactive: 0.619.

On to SGASTGIYEALELRD [ENOA_HUMAN_44], for which the enrichment score was inactive: 0.527.

As for IYIDPFTYEDPNEAV [EPHB1_HUMAN_600], the enrichment score is inactive: 1.13.

For SVRKGGSYSQAASSD [1A80_HUMAN_344], the enrichment score was inactive: 0.615.

Consider GHQKRIAYSLLGLKD [EPHA2_HUMAN_960], for which the enrichment score was inactive: 1.42.

Turning to DSQQTNDYMQPEEDW [ACTN1_HUMAN_12], the enrichment score was inactive: 1.19.

Consider MYGRDSAYQSITHYR [EMD_HUMAN_161], for which the enrichment score was inactive: 0.828.

In the case of DDTSDPTYTSSLGGK [EPHB1_HUMAN_778], the enrichment score is inactive: 0.537.

Consider KDRERPMYGRDSAYQ [EMD_HUMAN_155], for which the enrichment score was inactive: 1.3.

As to ESIRMKRYILHFHSA [EPHA1_HUMAN_930], the enrichment score was inactive: 1.74.

On to AYQSITHYRPVSASR [EMD_HUMAN_167], for which the enrichment score was inactive: 1.68.

With KLPGVRTYIDPHTAE [EPHA5_HUMAN_650_YA], the enrichment score is inactive: 0.68.

MAGRDSAYQSITHAR [EMD_HUMAN_161_YA]: the enrichment score was inactive: 0.926.

IINQEGEYIKMFMRG [EMAL4_HUMAN_226]: the enrichment score was inactive: 0.846.

For the molecule TAIDPHTYEDPNQAV [EPHA5_HUMAN_656_YA], the enrichment score was inactive: 0.709.

Regarding TRGDADMYDLPKKED [EMD_HUMAN_74], the enrichment score was inactive: 0.705.

For the molecule GHTSNNIYEAVKASE [ELP3_HUMAN_202_YA], the enrichment score is inactive: 0.75.

In a further assay the target is SHP2 N-SH2 domain T52S. The description is as above. The note with it: peptide library: Human pTyr.
EDDPDAAYTTTGGKI [EPHA8_HUMAN_793]: the enrichment score was inactive: 0.873.

DDPSDPTYTSSLGGK [EPHB3_HUMAN_792]: the enrichment score was inactive: 0.708.

As to SGASTGIYEALELRD [ENOA_HUMAN_44], the enrichment score was inactive: 0.6.

On to IYIDPFTYEDPNEAV [EPHB1_HUMAN_600], for which the enrichment score was inactive: 1.25.

Take SVRKGGSYSQAASSD [1A80_HUMAN_344]: the enrichment score is inactive: 0.662.

With GHQKRIAYSLLGLKD [EPHA2_HUMAN_960], the enrichment score is inactive: 1.15.

On to DSQQTNDYMQPEEDW [ACTN1_HUMAN_12], for which the enrichment score is inactive: 1.08.

Regarding MYGRDSAYQSITHYR [EMD_HUMAN_161], the enrichment score was inactive: 0.76.

Turning to DDTSDPTYTSSLGGK [EPHB1_HUMAN_778], the enrichment score is inactive: 0.57.

Turning to KDRERPMYGRDSAYQ [EMD_HUMAN_155], the enrichment score is inactive: 1.42.

ESIRMKRYILHFHSA [EPHA1_HUMAN_930]: the enrichment score is inactive: 2.08.

In the case of AYQSITHYRPVSASR [EMD_HUMAN_167], the enrichment score is inactive: 1.62.

In the case of KLPGVRTYIDPHTAE [EPHA5_HUMAN_650_YA], the enrichment score was inactive: 0.708.

With MAGRDSAYQSITHAR [EMD_HUMAN_161_YA], the enrichment score was inactive: 1.05.

For the molecule IINQEGEYIKMFMRG [EMAL4_HUMAN_226], the enrichment score is inactive: 1.17.

Take TAIDPHTYEDPNQAV [EPHA5_HUMAN_656_YA]: the enrichment score was inactive: 0.628.

Turning to TRGDADMYDLPKKED [EMD_HUMAN_74], the enrichment score is inactive: 1.36.

For GHTSNNIYEAVKASE [ELP3_HUMAN_202_YA], the enrichment score is inactive: 0.941.

The next assay addresses SHP2 N-SH2 domain wild-type. The assay is described as above. The following applies: peptide library: Human pTyr.
As for EDDPDAAYTTTGGKI [EPHA8_HUMAN_793], the enrichment score was inactive: 0.848.

DDPSDPTYTSSLGGK [EPHB3_HUMAN_792]: the enrichment score is inactive: 0.678.

In the case of SGASTGIYEALELRD [ENOA_HUMAN_44], the enrichment score is inactive: 0.863.

As for IYIDPFTYEDPNEAV [EPHB1_HUMAN_600], the enrichment score was inactive: 0.896.

SVRKGGSYSQAASSD [1A80_HUMAN_344]: the enrichment score was inactive: 0.493.

Consider GHQKRIAYSLLGLKD [EPHA2_HUMAN_960], for which the enrichment score was inactive: 1.18.

In the case of DSQQTNDYMQPEEDW [ACTN1_HUMAN_12], the enrichment score was inactive: 1.43.

In the case of MYGRDSAYQSITHYR [EMD_HUMAN_161], the enrichment score is inactive: 0.925.

For DDTSDPTYTSSLGGK [EPHB1_HUMAN_778], the enrichment score is inactive: 0.622.

In the case of KDRERPMYGRDSAYQ [EMD_HUMAN_155], the enrichment score was inactive: 1.49.

Take ESIRMKRYILHFHSA [EPHA1_HUMAN_930]: the enrichment score is inactive: 2.63.

For the molecule AYQSITHYRPVSASR [EMD_HUMAN_167], the enrichment score was inactive: 1.83.

On to KLPGVRTYIDPHTAE [EPHA5_HUMAN_650_YA], for which the enrichment score is inactive: 0.708.

As for MAGRDSAYQSITHAR [EMD_HUMAN_161_YA], the enrichment score is inactive: 1.11.

For IINQEGEYIKMFMRG [EMAL4_HUMAN_226], the enrichment score was inactive: 0.813.

Turning to TAIDPHTYEDPNQAV [EPHA5_HUMAN_656_YA], the enrichment score was inactive: 0.818.

For the molecule TRGDADMYDLPKKED [EMD_HUMAN_74], the enrichment score is inactive: 0.999.

On to GHTSNNIYEAVKASE [ELP3_HUMAN_202_YA], for which the enrichment score is inactive: 0.919.
